The record followed here is the GPR68 mutational scans of Howard et al. (2025).

The labels stand for the following.
B1: GPR68, Q15743 (parent)
chain: MGNITADNSSMSCTIDHTIHQTLAPVVYVTVLVVGFPANCLSLYFGYLQIKARNELGVYLCNLTVADLFYICSLPFWLQYVLQHDNWSHGDLSCQVCGILLYENIYISVGFLCCISVDRYLAVAHPFRFHQFRTLKAAVGVSVVIWAKELLTSIYFLMHEEVIEDENQHRVCFEHYPIQAWQRAINYYRFLVGFLFPICLLLASYQGILRAVRRSHGTQKSRKDQIQRLVLSTVVIFLACFLPYHVLLLVRSVWEASCDFAKGVFNAYHFSLLLTSFNCVADPVLYCFVSETTHRDLARLRGACLAFLTCSRTGRAREAYPLGAPEASGKSGAQGEEPELLTKLHPAFQTPNSPGSGGFPTGRLA

Variants of B1 are the subject of series [1]. In words: cAMP reporter score (Enrich2 score, wild type = 0); higher = more signal; HEK293T, FACS bins.
Series [2] covers variants of B1. Description: surface expression score (Enrich2 score, wild type = 0); higher = more signal; HEK293T, FACS bins.

Scores whose standard error is large were omitted. Not listed are two conditions whose scores span a narrow range. Names with del lack the residues named; names with ins carry added residues between the positions named. For part of these data: The data file names ogerin without a concentration.

As to H294del, the cAMP reporter score in series [1] (pH 5.5) was -1.01; in series [1] (pH 6), -1.14; in series [1] (pH 6, modulator: ogerin), -0.754; in series [1] (pH 6.5, modulator: ogerin) it was -1.23. For the same variant, the surface expression score in series [2] was 0.261.
For T293_R295del the same measures were -1.13, -1.11, -0.237, -0.822 and 0.838.
As for A298_R299del, the cAMP reporter score is -1.99 in series [1] (pH 5.5); -0.788 in series [1] (pH 6); -1.04 in series [1] (pH 6, modulator: ogerin); -1.18 in series [1] (pH 6.5, modulator: ogerin). Also, in series [2], the surface expression score is -2.55.
Taken in the same sequence, the figures for R295_D296insG were -0.933, -0.62, -1.36, -1.06 and 0.35.
Taken in the same sequence, the figures for L297_A298insGSG were -1.19, -1.39, -1.19, -1.43 and -1.27.
For R301del the same measures were 0.34, -0.4, -0.219, -1.24 and -1.25.
As to L297_A298insG, the cAMP reporter score in series [1] (pH 5.5) is -0.539; in series [1] (pH 6), 1.41; in series [1] (pH 6, modulator: ogerin) it was -0.205; in series [1] (pH 6.5, modulator: ogerin), 0.222. Further, the surface expression score in series [2] worked out at 0.563.
Taken in the same sequence, the figures for D296_A298del were -0.115, -0.884, 0.059, -0.657 and -0.876.
Turning to R301_G302del, the cAMP reporter score in series [1] (pH 5.5) is -0.648; in series [1] (pH 6) it was -0.758; in series [1] (pH 6, modulator: ogerin), -0.908; in series [1] (pH 6.5, modulator: ogerin) it was -0.554.
A303V: the cAMP reporter score in series [1] (pH 5.5) was -0.343; in series [1] (pH 6, modulator: ogerin) it was 0.621; in series [1] (pH 6.5, modulator: ogerin), 1.1. Further, the surface expression score in series [2] came to 0.149.
Turning to A303Y, the cAMP reporter score in series [1] (pH 5.5) was 0.26; in series [1] (pH 6) it was 0.238; in series [1] (pH 6, modulator: ogerin), 0.584; in series [1] (pH 6.5, modulator: ogerin), 0.138. Also, the surface expression score in series [2] worked out at 0.662.
For A303I the same measures were 0.639, -0.189, 0.716, -0.29 and -0.393.
For A303G the same measures were 0.029, -0.546, -0.089, -0.746 and 0.508.
Consider A303S, for which the cAMP reporter score is 0.132 in series [1] (pH 5.5); 0.314 in series [1] (pH 6); 0.159 in series [1] (pH 6, modulator: ogerin); 0.471 in series [1] (pH 6.5, modulator: ogerin). In series [2], the surface expression score is -0.059.
For A303D the same measures were 0.278, 2.54, 0.486, 2.46 and -0.766.
For A303R the same measures were 1.24, 1.15, 1.46, 1.52 and 0.648.
For A303K the same measures were 0.093, -0.581, 0.134, 0.435 and -0.386.
Take A303Q: the cAMP reporter score in series [1] (pH 5.5) worked out at 0.504; in series [1] (pH 6), 0.605; in series [1] (pH 6, modulator: ogerin), 1.09; in series [1] (pH 6.5, modulator: ogerin), 0.891. Besides, in series [2], the surface expression score came to 1.08.
For A303F the same measures were 0.003, -1.11, 0.499, -0.143 and -0.232.
For A303C the same measures were 0.472, 0, -0.177, 0.382 and 0.411.
Regarding A303E, the cAMP reporter score was 0.333 in series [1] (pH 5.5); 1.14 in series [1] (pH 6); 0.398 in series [1] (pH 6, modulator: ogerin); -0.014 in series [1] (pH 6.5, modulator: ogerin). Besides, in series [2], the surface expression score is -0.166.
For A303H the same measures were -0.075, 0.143, -0.201, -0.498 and -0.448.
For A303W the same measures were 1.09, 2.94, 0.669, 0.799 and 1.1.
For A303N the same measures were -0.043, 1.04, 0.366, -0.036 and -0.073.
A303P: the cAMP reporter score in series [1] (pH 5.5) is 0.758; in series [1] (pH 6) it was -0.127; in series [1] (pH 6, modulator: ogerin), 0.788; in series [1] (pH 6.5, modulator: ogerin), 1. Further, in series [2], the surface expression score was 1.21.
For A303M the same measures were -0.381, 0.225, 1.2, 0.724 and 0.752.
For the variant A303L, the cAMP reporter score in series [1] (pH 5.5) was -0.355; in series [1] (pH 6), -0.953; in series [1] (pH 6, modulator: ogerin), -0.524; in series [1] (pH 6.5, modulator: ogerin), -0.44. The surface expression score in series [2] was -0.557.
Take A303T: the cAMP reporter score in series [1] (pH 5.5) was -0.555; in series [1] (pH 6) it was -0.614; in series [1] (pH 6, modulator: ogerin), -0.402; in series [1] (pH 6.5, modulator: ogerin) it was -0.842. Also, in series [2], the surface expression score was -1.06.
Take A298_R299insGSG: the cAMP reporter score in series [1] (pH 5.5) was -1.32; in series [1] (pH 6), -0.393; in series [1] (pH 6, modulator: ogerin), -0.149. Besides, in series [2], the surface expression score came out at 0.121.
Take H294_R295del: the cAMP reporter score was -0.019 in series [1] (pH 5.5); -0.198 in series [1] (pH 6); -0.14 in series [1] (pH 6, modulator: ogerin); -1.06 in series [1] (pH 6.5, modulator: ogerin). In addition, the surface expression score in series [2] was 1.32.
